{"source": "patent US5859188A", "about": "“Method for discovering novel anthelmintic compounds” (priority 1997, dated 1999)", "key": {"[1]": {"molecular_target": "receptor preparation (membrane fraction of Ascaris suum body wall muscle), AF2 binding sites", "assay": "Displacement of radioactive AF2 ([125I]AF2) in a receptor binding assay", "settings": "for IC50: displacement of radioactive AF2", "protocol": "Adult female Ascaris suum, swine intestinal parasites, are collected in an abattoir after their removal from the intestine using pressurized water. Healthy specimens over 25 cm are selected, rinsed and placed in Ascaris Ringer's Solution (ARS: 4 mM NaCl, 5.9 mM CaCl2, 4.9 mM MgCl2, 5 mM Tris (C4 H11 NO3), 125 mM NaC2 H3 O2, 24.5 mM KCl, pH=7.4) at 37° C. Specimens are placed in a thermos filled with 37C Ascaris Ringer's solution and immediately air shipped to our laboratory. Upon arrival they are placed in fresh ARS (changed daily) and maintained at 37° C. for up to 3-4 days prior to use.\nAscaris suum body wall tissue (muscle) is dissected out by pinning each specimen in a dissection tray, opening the worm along its entire length at the lateral line with a scalpel, removing the intestine and ovaries and then scraping the muscle from the cuticle. One worm yields approximately 1.0 g tissue. Tissue collected is flash frozen in liquid nitrogen and stored at -80° C. until needed.\nMembrane suspension for the binding assay is prepared as follows. Collected frozen muscle is thawed in ice-cold buffer (10 mM POPSO, 2 mM EDTA, 100 uM PMSF, pH 7.4) at 7 g tissue/200 ml buffer. Tissue is broken up with a polytron for 60 seconds at setting 5 (50%). This suspension is then centrifuged at 3000 rpm for 5 minutes and the pellet discarded. The supernatant is centrifuged at 28000 g for 20 minutes. The resultant pellet is washed and centrifuged 3 times under identical conditions with the exception that a buffer containing 50 mM POPSO instead of 10 mM is used. Pellets are resuspended in the 50 mM POPSO buffer (~8 mg/ml) and stored at -80° C.\nEach replicate is one well of a standard 96-well plate and has a volume of 200 μl containing 15 ug protein (preparation described above). Each test group contains two replicates. For each test compound, one group is run with [^125 I]AF2 (0.2 nM) only (for total binding) and one with 1 μM (or as designated) concentration of the test compound and [^125 I]AF2 (for non-specific binding). The order of adding reagents to each replicate is: assay buffer (150 mM NaCl, 4 mM CaCl2, 2 mM MgCl2, 10 mM KCl, 4 mM NaHCO3, 5 mM HEPES, 1 mM PMSF, 1 mM β-mercaptoethanol, 1% BSA), test compound (made up in assay buffer), [^125 I]AF2 (in assay buffer) and membrane suspension (in assay buffer). The addition of the membrane suspension initiates the binding reaction which is run for 30 minutes on ice (4° C). Following the 30 minute incubation, each plate is centrifuged (4° C., 1500 g, 15 minutes) and the supernatant removed by suction. The pellet is washed with 200 μl assay buffer and the centrifugation/suction repeated. 50 μl of scintillant is added to each well and the plate is sealed. The plate is shaken on a rotary shaker for 2 hours and then counted on a Top Count® scintillation counter. The mean non-specific binding is subtracted from the mean total binding to yield specific binding for both the standard (AF2) and the unknowns."}, "A. suum muscle strips": {"tested_on": "A. suum muscle strips", "settings": "cited from earlier work; for Threshold Concentration: lowest tested concentration that detectably altered tension and/or contractile activity in at least half the strips"}, "[2]": {"tested_on": "innervated Ascaris suum muscle preparation", "assay": "Potency evaluation bioassay: muscle tension and contractile frequency of innervated Ascaris suum muscle preparation", "settings": "for Tension: 1 nM peptide, mean", "protocol": "AF2 and iodinated AF2 were evaluated in a bioassay using an innervated Ascaris suum muscle preparation and potency was estimated by measuring the physiological effects of the peptides on A. suum muscle tension and contractile frequency.\nAn adult female was bisected transversely just anterior to the oviduct. A 2 cm segment was obtained anterior from the initial cut and that section was placed immediately under 37° C. medium in a dissection chamber. Two muscle strips were then prepared from each segment. Strips were prepared by cutting the segment longitudinally along one lateral line, removing the gut and then severing the opposite lateral line. Steel wires, 4 cm long, 0.25 mm diameter, with terminal sharpened hooks, were inserted through the muscle strip approximately 3 mm and centered from each end. These hooks were used to suspend the muscle strip between an isometric force transducer and a stationary holdfast in a 37° C. water jacketed incubation chamber filled with suppressive Ascaris Ringer's Solution constantly bubbled with N2. The transducer was connected to a Gould chart recorder via a Gould Universal amplifier.\nThe muscle tension on each preparation was \"normalized\" to zero five minutes before the addition of a test compound or vehicle. Compounds or vehicles were introduced from stock solutions and assayed at a final concentration of 1 nM in replicate (n=6). […] Inhibition is manifested as a drop in baseline tension (compared to control), while excitation is defined as a marked rise in baseline tension, often superimposed with transient muscle contractions (spiking). In order to estimate the net change in muscle tension of these preparations, the midpoint of the spike was estimated visually. Muscle tension data were analyzed by analysis of variance."}, "Fasciola hapatica": {"tested_on": "Fasciola hapatica", "settings": "cited from earlier work"}}, "note": "Where two headings read alike, the source gives them in different places. Not every detail of the peptide structures is certain; ends, links or a residue may be inferred. Some entries repeat one wording, which the source may state once for all of them. Ends that are not written are not given here.", "data": [{"substance": "AHEYLRF-NH2 [AHEYLRFamide]", "values": [{"measurement": "IC50", "setting": "[1]; read-out: IC50", "result": 500, "unit": "nM"}]}, {"substance": "KAEYLRF-NH2 [KAEYLRFamide]", "values": [{"measurement": "IC50", "setting": "[1]; read-out: IC50", "result": 270, "unit": "nM"}]}, {"substance": "KHAYLRF-NH2 [KHAYLRFamide]", "values": [{"measurement": "IC50", "setting": "[1]; read-out: IC50", "result": 0.3, "unit": "nM"}]}, {"substance": "KHEALRF-NH2 [KHEALRFamide]", "values": [{"measurement": "potency in displacing radioactive AF2 (in words)", "setting": "[1]", "result": "insufficiently potent"}, {"measurement": "IC50", "setting": "[1]; read-out: IC50", "result": 280, "unit": "nM"}]}, {"substance": "KHEYARF-NH2 [KHEYARFamide]", "values": [{"measurement": "IC50", "setting": "[1]; read-out: IC50", "result": 600, "unit": "nM"}]}, {"substance": "KHEYIRF-NH2 [KHEYIRFamide]", "values": [{"measurement": "IC50", "setting": "[1]; read-out: IC50", "result": 1, "unit": "nM"}, {"measurement": "Threshold Concentration", "setting": "A. suum muscle strips", "result": 10, "unit": "nM"}]}, {"substance": "KHEYLAF-NH2 [KHEYLAFamide]", "values": [{"measurement": "IC50", "setting": "[1]", "result": "No Displacement"}]}, {"substance": "KHEYLRA-NH2 [KHEYLRAamide]", "values": [{"measurement": "IC50", "setting": "[1]; read-out: IC50", "result": 2000, "unit": "nM"}]}, {"substance": "KHEYLRF-NH2 [KHEYLRFamide (AF2), Lys-His-Glu-Tyr-Leu-Arg-Phe-amide]", "values": [{"measurement": "IC50", "setting": "[1]; read-out: IC50", "result": 0.2, "unit": "nM"}, {"measurement": "type of response of muscle tension", "setting": "[2]; 1 nM", "result": "biphasic responses (short term inhibition followed by long term excitation)"}, {"measurement": "Tension", "setting": "[2]; 5 min after peptide addition", "result": -313, "unit": "mg"}, {"measurement": "Tension", "setting": "[2]; 15 min after peptide addition", "result": -100, "unit": "mg"}, {"measurement": "Tension", "setting": "[2]; 30 min after peptide addition", "result": 43, "unit": "mg"}, {"measurement": "Tension", "setting": "[2]; 60 min after peptide addition", "result": 535, "unit": "mg"}, {"measurement": "Spike amplitude", "setting": "[2]; 1 nM, FIG. 1", "result": "significant increase"}, {"measurement": "Threshold Concentration", "setting": "A. suum muscle strips", "result": 0.01, "unit": "nM"}, {"measurement": "potency relative to AF1", "setting": "A. suum muscle strips; physiological effects on Ascaris suum neuromuscular activity", "result": "approximately 1000 fold"}, {"measurement": "activity in bioassays against other helminths", "setting": "Fasciola hapatica", "result": "has activity in bioassays against other helminths"}]}, {"substance": "KHEYLRF-OH [KHEYLRF-OH (AF2 acid), KHEYLRF-OH]", "values": [{"measurement": "IC50", "setting": "[1]; read-out: IC50", "result": 900, "unit": "nM"}]}, {"substance": "KNEFIRF-NH2 [KNEFIRFamide (AF1), Lys-Asn-Glu-Phe-Ile-Arg-Phe-amide]", "values": [{"measurement": "IC50", "setting": "[1]; read-out: IC50", "result": 1000, "unit": "nM"}, {"measurement": "Threshold Concentration", "setting": "A. suum muscle strips", "result": 10, "unit": "nM"}]}, {"substance": "KNEFIRF-OH [KNEFIRF-OH (AF1 acid), KNEFIRF-OH]", "values": [{"measurement": "IC50", "setting": "[1]", "result": "No Displacement"}, {"measurement": "Threshold Concentration (ND class)", "setting": "A. suum muscle strips; highest concentration 10 μM", "result": "ND (\"ND\" means no detectable effect at 10 μM)"}]}, {"substance": "KNEFLRF-NH2 [KNEFLRFamide]", "values": [{"measurement": "IC50", "setting": "[1]; read-out: IC50", "result": 95, "unit": "nM"}, {"measurement": "Threshold Concentration", "setting": "A. suum muscle strips", "result": 3200, "unit": "nM"}]}, {"substance": "KPNFIRF-NH2 [KPNFIRFamide (PF4), KPNFIRFamide]", "values": [{"measurement": "IC50", "setting": "[1]; read-out: IC50", "result": 10000, "unit": "nM"}]}, {"substance": "KSAYMRF-NH2 [KSAYMRFa (PF3), KSAYMRFa]", "values": [{"measurement": "IC50", "setting": "[1]", "result": "No Displacement"}]}]}
